Experimental data: the supplement of paper PMC12217912
This is one part of the list. The full chains were built here from the parent and the listed change. Values near 0.05 are background.

B1: TEV protease; numbered along this chain (parent)
chain: MGESLFKGPRDYNPISSSICHLTNESDGHTTSLYGIGFGPFIITNKHLFRRNNGTLVVQSLHGVFKVKDTTTLQQHLVDGRDMIIIRMPKDFPPFPQKLKFREPQREERICLVTTNFQTKSMSSMVSDTSCTFPSGDGIFWKHWIQTKDGQCGSPLVSTRDGFIVGIHSASNFTNTNNYFTSVPKNFMELLTNQEAQQWVSGWRLNADSVLWGGHKVFMVKPEEPFQPVKEATQL

Variants of: B1
Assay: raw area under fraction-flipped curve 0-4 h after induction (AUC4h, not background-subtracted), DNA-recorder readout of cleavage of the substrate (dimensionless); higher = more cleavage of the substrate by the protease variant
Conditions: temperature: 34 °C; time window: 0-4 h after rhamnose induction
Description: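 In vivo DNA recorder in E. coli TOP10(DE3) ΔrhaA at 34 °C. Each TEVp single-site mutant (parent TEVp 0) is paired with a single-site variant of the 7-mer TEVs (canonical ENLYFQ|S). The substrate sits between flexible linkers in a Bxb1-sfGFP-TEVs-SsrA fusion, so cleavage stabilises Bxb1 and speeds flipping of a recombination array, read by NGS. The value is the raw area under the fraction-flipped curve over 0-4 h after rhamnose induction (AUC4h), with ≥20 reads per time point. It is not background-subtracted; inactive controls average about 0.047.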
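Further: Bxb1 expression induced with 0.2% (w/v) L-rhamnose at OD600 near 0.5, cultures sampled hourly, flipped fraction per protease–substrate barcode pair counted by paired-end Illumina sequencing.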

| Variant | area with substrate CNLYFQS | area with substrate GNLYFQS | area with substrate INLYFQS | area with substrate LNLYFQS | area with substrate NNLYFQS | area with substrate PNLYFQS | area with substrate QNLYFQS | area with substrate SNLYFQS | area with substrate TNLYFQS | area with substrate WNLYFQS | area with substrate YNLYFQS | area with substrate HNLYFQS | area with substrate KNLYFQS | area with substrate MNLYFQS | area with substrate VNLYFQS | area with substrate FNLYFQS | area with substrate RNLYFQS |
| --- | --- | --- | --- | --- | --- | --- | --- | --- | --- | --- | --- | --- | --- | --- | --- | --- | --- |
| D208P | 0.0593 | 0.0713 | 0.0544 | 0.0677 | 0.0588 | 0.0642 | 0.0599 | 0.0694 | 0.0576 | 0.0684 | 0.0502 | – | – | – | – | – | – |
| G37Y | 0.0591 | 0.0558 | – | 0.0465 | – | 0.0527 | – | – | 0.0552 | 0.0456 | – | 0.0512 | 0.0646 | 0.0476 | – | – | – |
| P228L | 0.0739 | – | 0.0914 | – | – | 0.0628 | – | – | 0.0689 | – | 0.0703 | – | – | 0.0676 | 0.0745 | – | – |
| P228K | 0.086 | 0.0751 | – | – | 0.0833 | 0.0725 | 0.086 | – | 0.06 | 0.0464 | 0.0639 | – | 0.0769 | – | – | – | – |
| K185H | 0.0565 | – | – | 0.0645 | – | 0.0596 | – | – | 0.0585 | 0.0569 | – | 0.0797 | – | – | – | 0.0656 | 0.0667 |
| I19A | 0.0716 | 0.0559 | 0.0645 | 0.0541 | 0.0649 | 0.0613 | – | – | 0.0861 | 0.0508 | 0.0418 | 0.0639 | – | – | 0.0676 | – | 0.0753 |
| I84D | 0.0511 | – | 0.0385 | – | 0.0602 | 0.0486 | – | 0.0474 | 0.0569 | 0.043 | 0.0531 | 0.0459 | – | 0.0453 | 0.0579 | 0.0358 | 0.035 |
| I84T | 0.0629 | 0.0653 | 0.056 | 0.0702 | – | – | – | – | 0.0739 | 0.054 | – | 0.0581 | – | – | – | 0.111 | – |
| T129N | 0.0481 | 0.0659 | 0.0659 | 0.0637 | 0.0588 | – | – | – | 0.0671 | 0.0592 | 0.0579 | 0.0604 | – | 0.0773 | 0.0773 | – | – |
| N53F | 0.0477 | – | 0.0209 | 0.0735 | 0.0623 | 0.054 | 0.0608 | – | 0.0643 | 0.0512 | 0.0614 | 0.083 | – | 0.0764 | 0.0466 | – | – |
| V210H | 0.0623 | – | 0.0591 | 0.0584 | 0.0542 | 0.0576 | 0.05 | – | 0.0574 | – | 0.0462 | 0.0592 | – | – | – | – | – |
| S18H | 0.0634 | – | – | – | 0.0637 | 0.0569 | – | – | 0.0608 | 0.0035 | 0.0543 | 0.0667 | 0.0658 | – | – | – | – |
| G162K | 0.0639 | – | – | 0.0823 | – | 0.0671 | – | – | – | – | 0.0896 | – | – | – | – | – | – |
| D69K | 0.0658 | 0.0588 | 0.0442 | – | – | 0.0624 | – | – | 0.0645 | 0.0511 | 0.0542 | – | – | 0.0614 | 0.0508 | – | – |
| Q234A | 0.054 | – | – | – | – | 0.0654 | – | – | – | 0.0643 | 0.064 | 0.0687 | – | – | – | – | – |
| T147K | 0.0605 | 0.0638 | 0.0575 | – | – | – | 0.0454 | – | 0.0573 | 0.0506 | – | 0.0549 | 0.0705 | – | 0.0596 | – | 0.048 |
| T147H | 0.0625 | – | 0.0638 | 0.0806 | – | 0.0605 | – | – | – | 0.0685 | – | – | – | – | – | 0.0559 | 0.0624 |
| P225E | 0.061 | 0.0532 | 0.0702 | 0.0625 | 0.0596 | – | – | 0.0627 | 0.0648 | – | 0.0728 | – | 0.0668 | 0.0572 | – | 0.0622 | – |
